Out of some 270,000 compounds screened, about 5,800 (2.1%) were called active. Inconclusive results, whose numbers are uncertain, are shown with a selection of clear calls. Calls come from the whole dose curve; as a rule, active = well fitted inhibition curve with a large enough effect; inconclusive = small, poorly fitted or top-dose-only effect; inactive = flat fitted curve, though single readings scatter. Potencies beside an inconclusive call are fits to weak or partial responses and may not hold up.
These compounds were tested against Microtubule-associated protein tau (Homo sapiens) (UniProt P10636) (assay: qHTS for Inhibitors of Tau Fibril Formation, Thioflavin T Binding). Settings: recombinant tau K18 P301L, heparin-induced fibrillization, ThT fluorescence; series mostly up to 57.4 µM.
UniProt P10636, sequence (P10636 whole entry, looked up): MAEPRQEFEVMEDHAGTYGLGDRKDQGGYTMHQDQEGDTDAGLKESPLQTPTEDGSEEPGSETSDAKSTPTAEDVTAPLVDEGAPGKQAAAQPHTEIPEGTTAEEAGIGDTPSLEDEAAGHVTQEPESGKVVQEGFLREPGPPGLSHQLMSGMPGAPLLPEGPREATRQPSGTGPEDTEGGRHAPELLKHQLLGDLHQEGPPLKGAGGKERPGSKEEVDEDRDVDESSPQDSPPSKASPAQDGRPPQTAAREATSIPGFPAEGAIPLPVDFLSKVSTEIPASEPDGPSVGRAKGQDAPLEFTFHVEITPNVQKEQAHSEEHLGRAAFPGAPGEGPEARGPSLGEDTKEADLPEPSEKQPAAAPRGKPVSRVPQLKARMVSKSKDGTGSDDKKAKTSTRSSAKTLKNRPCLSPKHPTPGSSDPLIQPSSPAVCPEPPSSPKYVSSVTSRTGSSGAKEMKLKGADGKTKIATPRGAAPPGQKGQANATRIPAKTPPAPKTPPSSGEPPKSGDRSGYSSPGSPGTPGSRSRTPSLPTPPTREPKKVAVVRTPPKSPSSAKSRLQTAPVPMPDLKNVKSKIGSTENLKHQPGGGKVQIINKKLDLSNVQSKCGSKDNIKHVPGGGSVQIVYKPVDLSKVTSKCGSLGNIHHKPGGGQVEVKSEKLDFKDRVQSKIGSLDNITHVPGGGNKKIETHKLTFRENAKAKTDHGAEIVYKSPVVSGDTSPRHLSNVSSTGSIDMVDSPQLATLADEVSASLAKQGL
Outline: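 Fibril formation assay: tau K18 P301L at 15 uM with trace Alexa 594 label, heparin inducer 20 uM, pH 7 sodium acetate buffer, 37 C for 6 hr; endpoint ThT signal.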
With `CCC(C)[C@H](NC(=O)Nc1cccc(Br)c1)C(=O)OC` (stereo partly drawn) the Potency was inconclusive: 39.8 µM [inhibitor, single point]. `COc1ccc2c(c1)-c1nc(NC(=O)c3ccccc3F)sc1CC2` was tested, and the Potency was inconclusive: 0.0708 µM [inhibitor, full curve, poor fit]. For `CC1CCN(Cc2ccc(NC(=O)C3CCN(c4nnc(-n5cccc5)s4)CC3)cc2)CC1`, the Potency was inconclusive: 12.6 µM [inhibitor, partial curve]. In the case of `COc1ccc(CN(CCC(c2ccccc2)c2ccc(OC(C)C)cc2)C(=O)CCl)cc1OC` (stereo not drawn), the Potency is reported as inconclusive: 20 µM [inhibitor, partial curve, poor fit]. In the case of `Cc1cccc(/C(N)=N/OC(=O)c2ccc3c(c2)OCO3)c1`, the Potency is reported as inconclusive: 12.6 µM [inhibitor, partial curve]. For `CCOc1ccccc1N1C(=O)CC(Sc2n[nH]c(-c3ccccc3)n2)C1=O` (stereo not drawn), the Potency was inconclusive: 35.5 µM [inhibitor, single point]. In the case of `Cc1nnsc1C(=O)Oc1ccc(C(C)C)cc1`, the Potency is reported as inconclusive: 15.8 µM [inhibitor, partial curve]. With `Cc1cccc(NC(=O)CSc2nc(C3CCCC3)nc3c2c(=O)n(C)c(=O)n3C)c1C` the Potency was “inactive”. In the case of `CC/C(=C/c1sc2ccc(C)cc2[n+]1CCCS(=O)(=O)[O-])SC`, the Potency is reported as “inactive”. In the case of `Cc1nc(NC(=O)c2cccc(Cl)c2)sc1C(=O)N1CCCCC1`, the Potency is reported as inconclusive: 7.94 µM [inhibitor, full curve, poor fit]. With `CCOC(=O)c1ccc(NC(=O)CC2SC(=NC)N(C)C2=O)cc1` (stereo not drawn) the Potency was “inactive”. With `c1cc2c3c(cccc3c1)NC1(CCCCC1)N2` the Potency was inconclusive: 15.8 µM [inhibitor, partial curve]. In the case of `N#C/C(=C\c1cc(O)c(O)c(O)c1)C(N)=O`, the Potency is reported as inconclusive: 14.1 µM [inhibitor, partial curve]. In the case of `CCN1CCN(S(=O)(=O)Cc2ccccc2)CC1`, the Potency is reported as “inactive”. For `CCN1/C(=C2\C(=O)N(C)C(=S)N2C)C=Cc2cc(C)ccc21`, the Potency was inconclusive: 20 µM [inhibitor, partial curve]. For `O=c1cc(-c2ccccc2)nc2cc(-c3ccc(F)cc3)[nH]n12`, the Potency was inconclusive: 0.794 µM [inhibitor, full curve, poor fit]. With `Cc1cccc(NC(=O)c2ccc3nsnc3c2)c1C` the Potency was inconclusive: 12.6 µM [inhibitor, partial curve]. For `CC1(C)CC(=O)C2=C(C1)OC(N)=C(C#N)C2c1cccs1` (stereo not drawn), the Potency was inconclusive: 2.82 µM [inhibitor, partial curve]. For `Cc1nnc(SCc2nc(-c3ccc(Cl)cc3)no2)n1-c1ccc(F)cc1`, the Potency was inconclusive: 31.6 µM [inhibitor, single point]. In the case of `Cc1cccc(-c2nnc3sc(-c4ccccc4C)nn23)c1`, the Potency is reported as inconclusive: 25.1 µM [inhibitor, partial curve]. `CCCOc1ccc(N2CC(C(=O)Nc3ccc(N4CCOCC4)cc3)CC2=O)cc1` (stereo not drawn) was tested, and the Potency was inconclusive: 0.891 µM [inhibitor, partial curve]. In the case of `CC1(C)CC(=O)C(=Cc2cn(CCC#N)nc2-c2ccc(F)cc2)C(=O)C1`, the Potency is reported as inconclusive: 39.8 µM [inhibitor, single point]. In the case of `C=CCn1c(SCC(=O)N2CCc3ccccc3C2)nc2sc(C)c(C)c2c1=O`, the Potency is reported as inconclusive: 22.4 µM [inhibitor, single point]. With `COc1ccc(C(=O)Nc2ccc(N3CCN(Cc4ccccc4)CC3)cc2)cc1` the Potency was inconclusive: 0.794 µM [inhibitor, full curve, poor fit]. In the case of `COc1ccccc1Nc1cc(C(=O)NCc2cccnc2)c2ccccc2n1`, the Potency is reported as inconclusive: 35.5 µM [inhibitor, single point]. In the case of `O=C(O)CCn1c(O)c(C=C2N=c3ccccc3=N2)sc1=S`, the Potency is reported as inconclusive: 17.8 µM [inhibitor, partial curve]. For `CCc1ccc(N2C(=O)Cc3c2nc(N)c(C#N)c3N)cc1`, the Potency was inconclusive: 35.5 µM [inhibitor, single point]. In the case of `CCC1CCCCN1CCCNC(=O)c1c(O)nc2c(C)cccn2c1=O` (stereo not drawn), the Potency is reported as “inactive”. In the case of `C/C(=N\NC(=O)CCc1ccccc1)C1C(=O)c2ccccc2C1=O`, the Potency is reported as inconclusive: 15.8 µM [inhibitor, partial curve]. With `CCOc1ccccc1NC(=O)c1sc2nc(-c3ccc(OC)cc3)ccc2c1N` the Potency was inconclusive: 1 µM [inhibitor, full curve]. In the case of `Clc1cccc(CNc2nnnn2-c2ccccc2)c1`, the Potency is reported as inconclusive: 1.78 µM [inhibitor, full curve]. `Cn1cc(S(=O)(=O)N2CCCC(C(=O)O)C2)cn1` (stereo not drawn) was tested, and the Potency was “inactive”. For `Cc1cccc(NS(=O)(=O)c2ccc3c(c2)Cc2cc(S(=O)(=O)Nc4cccc(C)c4C)ccc2-3)c1C`, the Potency was inconclusive: 11.2 µM [inhibitor, partial curve]. `Cc1cnc(C(=O)OCC(=O)c2csc(N3CCCCC3)n2)cn1` was tested, and the Potency was “inactive”. `Cc1ccc(OCC(=O)Nc2ccc(N3CCCC3)cc2)cc1C` was tested, and the Potency was inconclusive: 8.91 µM [inhibitor, partial curve]. With `O=C(CCSCc1ccccc1F)N1CCN(c2ccc(Cl)cc2)CC1` the Potency was inconclusive: 10 µM [inhibitor, partial curve, poor fit]. For `O=C(CCC1CCCC1)Nc1ccccc1-c1ccccc1`, the Potency was “inactive”. In the case of `CN(Cc1ccccc1)c1nc(-c2cccc([N+](=O)[O-])c2)nc2ccccc12`, the Potency is reported as “inactive”. `COc1ccc(/C=N/NC(=O)c2nc(-c3ccccc3)cc(-c3ccccc3)n2)cc1OC` was tested, and the Potency was inconclusive: 17.8 µM [inhibitor, partial curve]. In the case of `COc1ccc(OC)c(CCNC(=O)CN2C(=O)COc3ccc(S(=O)(=O)N4CCC(C)CC4)cc32)c1`, the Potency is reported as inconclusive: 25.1 µM [inhibitor, single point]. For `CCCC(=O)NC(c1cccs1)c1cc([N+](=O)[O-])c2cccnc2c1O` (stereo not drawn), the Potency was inconclusive: 15.8 µM [inhibitor, partial curve]. For `CCCCNc1nc(Oc2ccc(OCCC)nn2)nc(N(C)C)n1`, the Potency was “inactive”. With `O=C(c1ccc(COc2ccccc2Br)cc1)N1CCCCC1` the Potency was inconclusive: 31.6 µM [inhibitor, partial curve].

Source: PubChem BioAssay AID1460 (National Center for Advancing Translational Sciences (NCATS), 2008)
Note: nearly all actives have a fitted effect of over 55% in size.
Potency is the fitted concentration of half-maximal effect; tags give direction and shape of the fitted curve.
